# Measured values: PubChem BioAssay AID434955 (Southern Research Specialized Biocontainment Screening …, 2010)
# Some of the results follow. The main result of the screen is listed elsewhere. These columns were measured beside it and carry no call. The list favours compounds with an active or inconclusive main result.
# Assay: beta-lactam sensitization of Mtb H37Rv, H37Rv (AID 434955);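 note: growth measured after seven days incubation then overnight dye step; 0% = bacteria only wells and 100% = bacteria with antibiotic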
# Details: M. tuberculosis H37Rv growth with meropenem, percent inhibition; measured here: primary screen without meropenem; at 25 µM
row,SMILES,inhibition
1,Cc1cc(SCc2cccc(C(F)(F)F)c2)nc(=O)[nH]1,-1.52%
2,CNc1ccccc1C(=O)OC(C)C(=O)Nc1ccc(Cl)cn1 (stereo not given),97.7%
3,O=C(Oc1cccc2cccnc12)c1ccc(N2C(=O)C3C4CCC(C4)C3C2=O)cc1 (stereo not given),99.8%
4,Cc1cc(OCC(=O)Nc2ccc(N3CCN(C)CC3)cc2)ccc1Cl,-20%
5,CCCCC(Sc1nc(N)c(NC(=O)c2ccco2)c(=O)[nH]1)C(=O)O (stereo not given),1.82%
6,O=C(CC1SC(=O)NC1=O)Oc1ccc(/C=N/NC(=O)c2ccccc2O)cc1 (stereo not given),1.45%
7,O=C(COc1ccc2ccccc2c1)N1c2ccccc2Sc2ccccc21,3.76%
8,O=C(NC(NC(=S)Nc1c(Cl)cccc1Cl)C(Cl)(Cl)Cl)c1cccc([N+](=O)[O-])c1 (stereo not given),0.79%
9,COc1cc(Br)c(CC(=O)O)cc1OC,-1.96%
10,CCn1cc(CN2CCC(n3nccc3NC(=O)c3cccc(F)c3)CC2)cn1,-2.97%
11,Cc1nn2c(N3CCOCC3)cc(C(C)(C)C)nc2c1-c1ccccc1,0.23%
12,COc1ccc(C(=O)SC2=NCCS2)cc1OC,4.48%
13,Cc1cc(=O)n2nc(N3CCC(C(=O)NC(C)c4ccccc4)CC3)sc2n1 (stereo not given),-1.79%
14,O=C(CSc1nc2c([nH]c3ccccc32)c(=O)n1-c1ccccc1F)NCC1CCCO1 (stereo not given),-1.74%
15,CCc1nc(N2CCN(CC(=O)NCC3CCCO3)CC2)c(C#N)c2c1COC(C)(C)C2 (stereo not given),-0.97%
16,CN(C(=O)COc1ccc(Cl)cc1Br)C1CCCCC1,-2.68%
17,CCCCCc1ccc(-c2ccc(/C=C/C(N)=O)cc2)nc1,2.44%
18,CC(C)Cc1nnc(NC(=O)CSc2nc(O)c(-c3ccccc3)c(=O)[nH]2)s1,36.7%
19,COc1ccc(OC)c(C(=O)c2oc3ccccc3c2NC(C)=O)c1,-10.6%
20,O=C(CSc1nnc2n(C3CCCC3)c(=O)c3ccccc3n12)N1CCCCCC1,-5.42%
21,c1ccc(-c2nc(NC3CC3)nc(-n3ccnc3)n2)cc1,3.92%
22,Cc1cc(N(CN2CCCC2=O)C(=O)c2ccccc2)no1,3.03%
23,CCOc1ccc(C2C(C(=O)Nc3ccc(F)cc3)=C(C)Nc3nc(CCCO)nn32)cc1 (stereo not given),-5.73%
24,O=C(CC1Oc2ccc(Cl)cc2NC1=O)NC1CCCCCC1 (stereo not given),-5.13%
25,Cc1cc(C)cc(OCC(=O)NNC(=O)c2ccccn2)c1,94.7%
26,COc1ccc(CCNC(=O)Cn2nc([N+](=O)[O-])c(Br)c2C)cc1OC,1.63%
27,O=C(CNC(=O)c1ccccc1C(=O)O)c1ccccc1,-12.4%

row,SMILES,inhibition
1,O=C(COc1cc(Cl)ccc1Cl)Nc1nnc(C2CC2)s1,8.95%
2,COc1cccc2cc(C(=O)NCc3ccccc3Br)c(=O)oc12,3.49%
3,COc1ccc(/C=C(/NC(=O)c2ccc(Br)cc2)C(=O)N2CCOCC2)cc1,8.51%
4,O=C(NCc1ccc(Cl)cc1)C1CCN(C(=O)Cc2ccccc2)CC1,-6.38%
5,Cc1ccc2c(c1)N(CC(=O)NC1CCC(C)CC1)C(=O)c1cccnc1O2 (stereo not given),-4.97%
6,O=C(N/N=C/c1cccc([N+](=O)[O-])c1)C(=O)N1CCCCCC1,2.87%
7,CCC(=O)NC(=S)Nc1ccc(S(=O)(=O)NC2CCCCC2)cc1,4.62%
8,O=C(Nc1nc2c(ccc3ccccc32)s1)c1ccco1,63.2%
9,COc1ccc(-c2ccc(SCC(=O)NC3CCCC3)nn2)cc1OC,-6.55%
10,COC(=O)c1c(-c2ccc(OC)cc2)oc2ccc(-c3cc(OC)c(OC)c(OC)c3)cc12,32.5%
11,CN(CC(=O)Nc1cccnc1)S(=O)(=O)c1cc(Cl)ccc1Cl,2.88%
12,CC(O)/C=C/c1ccc2ccccc2n1 (stereo not given),10.9%
13,Cc1cccc(C)c1OCc1cc(C(=O)N(C)Cc2cc(C3CC3)n[nH]2)no1,6.29%
14,CN(Cc1ccc(Cl)cc1Cl)C(=O)CNC(=O)c1ccco1,-2.92%
15,CCCC(C)c1nc(C(N)=O)c2[nH]c(=O)n(-c3ccc(OC)cc3OC)c2n1 (stereo not given),0.21%
16,Nc1nc(N)c2nc(CNc3ccc(C(=O)NC(CCC(=O)O)C(=O)O)cc3)cnc2n1 (stereo not given),15.5%
17,Cc1cc2nc(SCC(=O)Nc3nonc3C)c3c(c2cc1C)CCCC3,8.37%
18,COc1ccc(-n2c(=S)[nH]c3cc(C(=O)NCc4ccco4)ccc3c2=O)c(OC)c1,2.86%
19,CC(C)c1nc2cc(C(=O)N3CCN(c4cnccn4)CC3)ccc2o1,0.35%
20,CCc1cc2c(Sc3nc4ccccc4s3)ncnc2s1,11.1%
21,Cc1onc(-c2c(F)cccc2Cl)c1C(=O)Nc1sc2c(c1C(N)=O)CCC2,-5.61%
22,O=C(Oc1c(-c2ccccc2Cl)oc2ccccc2c1=O)c1ccc(Cl)cc1,24.7%
23,COc1cc(OC)c(OC)cc1CN1CCN(S(=O)(=O)c2ccc(F)cc2)CC1,-2.99%
24,COc1cccc(/C=N/NC(=O)c2cnccn2)c1O,4.49%
25,CCOc1cccc(NC(=O)C2CCCN(S(=O)(=O)c3ccc(OC)cc3)C2)c1 (stereo not given),-2.26%
26,COc1ccc(O)c(CN2CCC(n3nccc3NC(=O)CCOc3ccccc3)CC2)c1,8.62%
27,Cc1cc(C)n(CC(=O)N2CCCC(N3CCN(c4ccccc4C)CC3)C2)n1 (stereo not given),0.01%

row,SMILES,inhibition
1,CCc1nc2oc3cc(OC)ccc3c(=O)c2c(=O)n1Cc1ccccc1,-1.3%
2,O=C(CSc1nnc(CNC(=O)c2ccccc2)o1)Nc1ccc2c(c1)OCO2,-3.23%
3,Cc1[nH]n(-c2nc(-c3cccc([N+](=O)[O-])c3)cs2)c(=O)c1C,63.3%
4,O=C(O)CCN1C(=O)/C(=C/c2ccc(-c3nc4ccccc4s3)o2)SC1=S,-4.77%
5,C[N+]1(C)[C@@H]2CC[C@H]1CC(OC(=O)C(c1ccccc1)c1ccccc1)C2 (stereo not given in full),7.54%
6,COc1cccc(N2CC(C(=O)Nc3nnc(SCC(=O)NC4CCCC4)s3)CC2=O)c1 (stereo not given),-2.67%
7,CC1(C)CC(=O)C(C(O)c2ccc([N+](=O)[O-])cc2)C(C)(C)N1 (stereo not given),4.7%
8,Cc1cnc(NC(=O)CSc2nnc(-c3ccccc3)n2Cc2ccccc2)s1,-1.56%
9,O=C(CN1CCNCC1)Nc1ccc(Oc2ccccc2)cc1,-1.13%
10,CC1(C)Cc2c(cnn2-c2cccc(F)c2)C(NC(=O)CCN2CCCC2=O)C1 (stereo not given),2.61%
11,CCC1CCCCN1CCCNC(=O)Cn1ncn2nc(-c3ccc(OC)cc3)cc2c1=O (stereo not given),3.17%
12,O=C(NCCN1CCN(c2cccc(Cl)c2)CC1)Nc1ccccc1,12.6%
13,CC(CC(F)(F)F)N1CCC(n2nccc2NC(=O)CCCc2ccccc2)CC1 (stereo not given),-4.53%
14,CC1(C)Cc2c(sc(NC(=O)c3ccc(C(=O)c4ccccc4)cc3)c2C(N)=O)C(C)(C)N1,95.8%
15,CC(=O)N1CCN(C(=O)CCc2nc3sc4c(c3c(=O)[nH]2)CCCC4)CC1,-2.75%
16,CC(C)c1ccc(CN(C(=O)c2cc3ccccc3oc2=O)C2CCS(=O)(=O)C2)cc1 (stereo not given),3.88%
17,CCCCn1c(SCC(N)=O)nnc1-c1ccco1,-9.89%
18,O=C1OC(/C=C/c2ccccc2)=NC/1=C/c1ccco1,48.4%
19,COc1cccc(NS(=O)(=O)c2ccc3[nH]cc(C(=O)NCCC(C)C)c(=O)c3c2)c1,14.1%
20,COc1ccc2oc(C(=O)OCC(=O)N3CC(C)OC(C)C3)c(C)c2c1 (stereo not given),0.09%
21,COc1ccc2[nH]cc(C(=O)CCl)c2c1,50.5%
22,O=C(NC1CCCC1)c1cccc2c1C(=O)c1ccc(N3CCCCC3)cc1S2(=O)=O,66.2%
23,COc1ccccc1-c1nnc(NC(=O)c2ccc(S(=O)(=O)N(C)CC3CCCO3)cc2)o1 (stereo not given),45.1%
24,Cc1cccc(C(=O)Nc2nnc(S(=O)(=O)N(C)Cc3ccco3)s2)c1,17.9%
25,O=C(Nc1ccccc1)c1cccc(N2C(=O)C3C4CC(C(Br)C4Br)C3C2=O)c1 (stereo not given),7.24%
26,Cc1ccc(N(C(=O)C2CCC(=O)N2)C2(C(=O)NC3CCCC3)CCCCC2)cc1 (stereo not given),1.37%
27,COc1ccc(C2c3c(C)nn(-c4ccccc4)c3NC(=O)N2c2ccccc2)cc1 (stereo not given),42.9%

row,SMILES,inhibition
1,CCOc1ccc(N(CC(=O)NCCOc2ccc(C)cc2)S(=O)(=O)c2ccccc2)cc1,0.97%
2,CCOC(=O)c1sc2cc([N+](=O)[O-])cc(SCC(C)C)c2c1N,2.8%
3,O=C(CSc1nnc(-c2ccncc2)n1-c1ccccc1)NC1CC1,-4.84%
4,CCCn1cc(S(=O)(=O)c2ccc(OC)cc2)c(=O)c2cc(OC)ccc21,1.7%
5,Cc1ccc(-n2ncc3c2CCCC3NC(=O)c2csnn2)cc1C (stereo not given),5.74%
6,CCN1CCN(C(=O)COCc2cc(-c3ccc4c(c3)OCO4)on2)CC1,-4.82%
7,CCOC(=O)C1CCCCN1C(=O)c1oc2c(Cl)cc(C)cc2c1C (stereo not given),-7.6%
8,C[N+](C)(C)CCN(Cc1ccc(Cl)cc1)c1ccccn1,6.71%
9,CCCCCCCCCS(=O)(=O)N/N=C/c1cccc([N+](=O)[O-])c1,-1.61%
10,COc1ccc(F)c(CN2CCC(n3nccc3NC(=O)C3CCOC3)CC2)c1 (stereo not given),-3.97%
11,CC(Sc1nnc(N)s1)c1ccccc1Cl (stereo not given),-3.43%
12,COc1cccc(C2=NOC(C(=O)NCc3cccs3)C2)c1 (stereo not given),21.2%
13,O=C(CN1C(=O)c2cccnc2Oc2ccc(Cl)cc21)NC1CCCCC1,-9.92%
14,BrC(=C\c1ccccc1)/C=N/N1CCN(c2ccccn2)CC1,9.41%
15,CC1CCN(C(=O)CCCN2C(=O)c3cccnc3Oc3ccc(Cl)cc32)CC1,0.12%
16,CN(CC(=O)NC1CCCCCC1)S(=O)(=O)c1ccc(Br)cc1,12.5%
17,COc1cccc(C2CC(c3ccc(C)cc3)n3ncnc3N2)c1 (stereo not given),-10.2%
18,COc1ccc(CCN2CC(C(=O)NCCc3ccccn3)CCC2=O)cc1 (stereo not given),-3.03%
19,Cc1cc(NS(=O)(=O)c2ccc(NC(=O)COc3ccccc3C(C)(C)C)cc2)no1,4.47%
20,Cn1nnnc1SCC(=O)Nc1ccccc1[N+](=O)[O-],13.8%
21,O=C(NNC(=O)c1ccc(Oc2cc(Cl)cc(Cl)c2)o1)c1ccccc1,50.8%
22,Cc1cc(C(=O)NC2CCCN(Cc3ccc(Cl)cc3)C2)no1 (stereo not given),20.1%
23,CCOc1ccc(-c2nc(S(=O)(=O)c3ccccc3)c(NC)o2)cc1,6.47%
24,COc1ccc(Cc2nnc3c4cnn(C)c4ncn23)cc1,-2.34%
